Results on 115 sequences are retold here after the BET-seq Pho4 binding data (Le et al. 2018).

The list shows a part of the results. These are noisy estimates, calculated here from bound and input reads.

For this test, the target named is T1, Pho4 (S. cerevisiae) (UniProt P07270).
T1 sequence: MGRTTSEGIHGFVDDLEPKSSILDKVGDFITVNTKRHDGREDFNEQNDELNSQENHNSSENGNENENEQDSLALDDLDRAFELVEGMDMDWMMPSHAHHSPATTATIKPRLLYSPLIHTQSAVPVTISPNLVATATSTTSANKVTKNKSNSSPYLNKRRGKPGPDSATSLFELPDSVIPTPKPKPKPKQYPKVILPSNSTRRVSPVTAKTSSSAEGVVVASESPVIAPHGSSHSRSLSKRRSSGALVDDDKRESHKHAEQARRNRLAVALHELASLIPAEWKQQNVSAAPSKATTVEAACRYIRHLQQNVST
Description: relative binding free energy (BET-seq); higher = weaker binding. Conditions: reference: library average.
Regarding TCATGCACGTGAGATG, the “relative binding free energy” value stood at 0.23 kcal/mol.
Next, GGGTGCACGTGTCAGT: -0.09 kcal/mol; GTAGGCACGTGGTTGG: -0.08 kcal/mol; GTTGTCACGTGTACTG: 0.21 kcal/mol.
On to ATATACACGTGTCGTT, for which the “relative binding free energy” value was -0.02 kcal/mol.
For TGTGACACGTGTCATG, the “relative binding free energy” value is -0.03 kcal/mol.
In the case of GATTGCACGTGGCCTG, the “relative binding free energy” value was determined as 0.04 kcal/mol.
The same measure for GTGTGCACGTGAGGGT: 0.21 kcal/mol.
Next, GGGCTCACGTGGTCGG: 0.26 kcal/mol; TAGTCCACGTGGTCGT: 0.02 kcal/mol.
Turning to AATCTCACGTGAGGGG, the “relative binding free energy” value came out at 0.38 kcal/mol.
Next, TTTTTCACGTGGAAGG: 0.25 kcal/mol; AGTGGCACGTGATCTT: 0.05 kcal/mol; AGACGCACGTGGGGTA: -0.2 kcal/mol.
GTGGGCACGTGCATTT: the “relative binding free energy” value is -0.11 kcal/mol.
The same measure for TAAGGCACGTGTAGTG: -0.02 kcal/mol.
Next, AGTTTCACGTGTGCGA: 0.22 kcal/mol.
Turning to GTATCCACGTGGGGCG, the “relative binding free energy” value is -0.11 kcal/mol.
Turning to AATGTCACGTGTTATA, the “relative binding free energy” value amounted to 0.02 kcal/mol.
Next, ATAAGCACGTGCGGTG: -0.14 kcal/mol; GAGTGCACGTGATTTG: 0.17 kcal/mol; TGGCTCACGTGACGGT: 0.28 kcal/mol.
Next, TGTTGCACGTGCAATG: 0.03 kcal/mol; TTTTCCACGTGAGGCG: 0.32 kcal/mol.
As to AGTGGCACGTGCGATG, the “relative binding free energy” value is -0.17 kcal/mol.
The same measure for TGGGACACGTGACGTT: 0.09 kcal/mol; for AATTTCACGTGCTATT: 0.09 kcal/mol.
Regarding TGTATCACGTGGAGAA, the “relative binding free energy” value is 0.11 kcal/mol.
Next, GGGTGCACGTGTCTGA: -0.07 kcal/mol; TCTGGCACGTGTAGAG: 0.02 kcal/mol.
Consider TTTAACACGTGTATGA, for which the “relative binding free energy” value was -0.17 kcal/mol.
Next, GTGCTCACGTGGTGGA: 0.05 kcal/mol; TAGGTCACGTGGCGAA: 0.11 kcal/mol.
Next, ATTTGCACGTGGTTGC: -0.12 kcal/mol; GAGTTCACGTGATTAG: 0.63 kcal/mol.
Next, GCTTTCACGTGGGAGT: 0.36 kcal/mol; AATTGCACGTGAGTTG: 0.12 kcal/mol; AGAATCACGTGGTTTG: 0.06 kcal/mol.
TAATTCACGTGTTTCT: the “relative binding free energy” value is 0.28 kcal/mol.
Next, ACGTTCACGTGGTTGG: 0.12 kcal/mol; CGGGTCACGTGTGGCT: 0.26 kcal/mol.
The same measure for GCGGGCACGTGCAGGT: -0.1 kcal/mol; for TTTGTCACGTGGAGAA: 0.13 kcal/mol; for AGAAGCACGTGGGGAG: -0.26 kcal/mol.
Next, AATCTCACGTGGTGAT: 0.18 kcal/mol; TTTATCACGTGGTTAG: 0.12 kcal/mol.
For GGGCTCACGTGTTGTC, the “relative binding free energy” value was found to be 0.28 kcal/mol.
The same measure for GATTGCACGTGTGGGG: 0.1 kcal/mol; for GTAAACACGTGGTTTG: 0.11 kcal/mol.
With AGGGTCACGTGCATGG, the “relative binding free energy” value was found to be 0.1 kcal/mol.
Next, TCAGGCACGTGGCTGG: -0.14 kcal/mol; GTGGGCACGTGTCTGT: -0.12 kcal/mol; GTAGACACGTGTGATG: -0.06 kcal/mol.
The same measure for TGTAGCACGTGAGGGA: 0.16 kcal/mol.
As to GTGGGCACGTGGTTCT, the “relative binding free energy” value is -0.04 kcal/mol.
The same measure for CGAGCCACGTGCGGGG: -0.09 kcal/mol; for TATGGCACGTGGTCTG: -0.16 kcal/mol.
The same measure for TAGAGCACGTGTTTAA: -0.2 kcal/mol; for TGGATCACGTGCTTAT: 0.08 kcal/mol; for CTTGGCACGTGGGTTA: -0.26 kcal/mol.
The same measure for TAGGACACGTGTAGTT: 0.02 kcal/mol; for TTGGGCACGTGGATTA: 0.02 kcal/mol; for ATTTGCACGTGTGAAG: 0.12 kcal/mol.
GGGTTCACGTGCGAAT: the “relative binding free energy” value is 0.39 kcal/mol.
The same measure for TGCGGCACGTGGTAGT: -0.26 kcal/mol.
On to AATGTCACGTGCAGGA, for which the “relative binding free energy” value worked out at 0.19 kcal/mol.
The same measure for AGTGTCACGTGGGTAC: -0.23 kcal/mol; for ACATGCACGTGTTTGG: -0.07 kcal/mol; for TATAGCACGTGCAAGG: 0.03 kcal/mol.
The same measure for AAAATCACGTGTTTTT: 0.11 kcal/mol; for TGGTTCACGTGGGGGC: 0.21 kcal/mol.
As for GGGTTCACGTGACATT, the “relative binding free energy” value came out at 0.38 kcal/mol.
For TTGAGCACGTGGAAGA, the “relative binding free energy” value was -0.02 kcal/mol.
Regarding ATTGACACGTGGTTGT, the “relative binding free energy” value turned out to be 0.05 kcal/mol.
For the sequence GAGTGCACGTGAGGAA, the “relative binding free energy” value stood at 0.31 kcal/mol.
Next, GAGTTCACGTGGGCAT: 0.19 kcal/mol; CTGTACACGTGTTTGG: -0.06 kcal/mol; TCTGTCACGTGATGGA: 0.17 kcal/mol.
With TGATGCACGTGGGCGG, the “relative binding free energy” value was -0.26 kcal/mol.
The same measure for AATGGCACGTGTGAAG: -0.05 kcal/mol.
Regarding AGTCACACGTGAGTTG, the “relative binding free energy” value was 0.15 kcal/mol.
The same measure for TATTGCACGTGCTATG: -0.1 kcal/mol.
The same measure for CAGGCCACGTGGGTGT: -0.17 kcal/mol; for TTGTGCACGTGGGGGA: -0.14 kcal/mol.
On to TGGCTCACGTGGGATA, for which the “relative binding free energy” value worked out at 0.22 kcal/mol.
For TGTAGCACGTGAATGG, the “relative binding free energy” value was 0.2 kcal/mol.
Regarding TGCACCACGTGAAGGG, the “relative binding free energy” value came to 0.29 kcal/mol.
Take ACTGTCACGTGAATTT: the “relative binding free energy” value came out at 0.39 kcal/mol.
As to TTTAGCACGTGTCGCT, the “relative binding free energy” value came to 0.1 kcal/mol.
On to TCTGACACGTGGAGTT, for which the “relative binding free energy” value stood at 0.01 kcal/mol.
Regarding AACATCACGTGGGGGG, the “relative binding free energy” value is -0.02 kcal/mol.
AAATGCACGTGTGTGT: the “relative binding free energy” value came to 0.04 kcal/mol.
Turning to TGTTGCACGTGGTGGT, the “relative binding free energy” value amounted to 0 kcal/mol.
TGGCTCACGTGTGTCA: the “relative binding free energy” value turned out to be 0.23 kcal/mol.
For GGGATCACGTGGTTCA, the “relative binding free energy” value stood at 0.17 kcal/mol.
The same measure for GTTTACACGTGGCATG: 0.03 kcal/mol.
Next, AAGGGCACGTGCGTGC: -0.25 kcal/mol; TGGCTCACGTGGATGA: 0.24 kcal/mol.
Next, TCATACACGTGGTGGA: -0.03 kcal/mol; CGGAACACGTGTTGGT: 0.02 kcal/mol; AAGGGCACGTGACTTT: 0.1 kcal/mol.
GTTGGCACGTGTCTAG: the “relative binding free energy” value was determined as 0.06 kcal/mol.
Next, TAATACACGTGATTGA: 0.11 kcal/mol.
On to GGCGGCACGTGTTCGT, for which the “relative binding free energy” value came out at 0.1 kcal/mol.
In the case of GCTTCCACGTGGATGT, the “relative binding free energy” value was 0.23 kcal/mol.
As for TCGGGCACGTGTCATT, the “relative binding free energy” value turned out to be 0.07 kcal/mol.
Next, TATAGCACGTGCATTT: 0.02 kcal/mol.
With AGTGTCACGTGACGGA, the “relative binding free energy” value was 0.11 kcal/mol.
Take TTTGACACGTGTTGGT: the “relative binding free energy” value was 0.02 kcal/mol.
The same measure for CTAAGCACGTGAGGTT: 0.27 kcal/mol.
Take TTGTGCACGTGTTACG: the “relative binding free energy” value came to 0.03 kcal/mol.
The same measure for GAAGGCACGTGGGGAA: -0.06 kcal/mol; for TGCGGCACGTGAATGT: 0.2 kcal/mol; for AGGTTCACGTGTTTTA: 0.36 kcal/mol.
AATGGCACGTGACGTT: the “relative binding free energy” value stood at 0.03 kcal/mol.
